The list shows a part of the results.
Tests used:
Assay in all cases: glycan array binding signal (z-score within array); higher = stronger binding
Details in all cases: glycan notation: IUPAC condensed, linker removed; mutation: F63H
Glc(b1-4)Glc = target: Glc(b1-4)Glc
Method in brief: (§1)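 Glycan array data came from 3228 arrays in the Consortium for Functional Glycomics database, and only arrays with an available protein sequence were kept. Glycan names were put into IUPAC-condensed notation, and columns mapping to the same glycan were averaged. The binding signal is a within-array Z-score, averaged across arrays of one protein sequence run at different concentrations or buffers and across linkers. A negative Z-score can be read as non-binding.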

Glc(b1-6)Glc = target: Glc(b1-6)Glc
Method in brief: as §1

GlcA(b1-3)Gal = target: GlcA(b1-3)Gal
Method in brief: as §1

GlcA(b1-3)GlcNAc = target: GlcA(b1-3)GlcNAc
Method in brief: as §1

GlcA(b1-6)Gal = target: GlcA(b1-6)Gal
Method in brief: as §1

[1] = target: GlcA3S(b1-3)Gal(b1-4)GlcNAc(b1-2)Man
Method in brief: as §1

[2] = target: GlcA3S(b1-3)Gal(b1-4)GlcNAc(b1-3)Gal(b1-4)Glc
Method in brief: as §1

[3] = target: GlcNAc(a1-3)Gal(b1-4)GlcNAc
Method in brief: as §1

[4] = target: GlcNAc(a1-4)Gal(b1-3)GlcNAc
Method in brief: as §1

[5] = target: GlcNAc(a1-4)Gal(b1-4)GalNAc
Method in brief: as §1

[6] = target: GlcNAc(a1-4)Gal(b1-4)GlcNAc
Method in brief: as §1

[7] = target: GlcNAc(a1-4)Gal(b1-4)GlcNAc(b1-3)Gal(b1-4)Glc
Method in brief: as §1

[8] = target: GlcNAc(a1-4)Gal(b1-4)GlcNAc(b1-3)Gal(b1-4)GlcNAc
Method in brief: as §1

[9] = target: GlcNAc(a1-4)Gal(b1-4)GlcNAc(b1-3)Gal(b1-4)GlcNAc(b1-3)Gal(b1-4)GlcNAc
Method in brief: as §1

[10] = target: GlcNAc(a1-4)Gal(b1-4)GlcNAc(b1-3)Gal(b1-4)[Fuc(a1-3)]GlcNAc(b1-3)Gal(b1-4)[Fuc(a1-3)]GlcNAc
Method in brief: as §1

[11] = target: GlcNAc(a1-6)Gal(b1-4)GlcNAc
Method in brief: as §1

[12] = target: GlcNAc(b1-2)Gal(b1-3)GalNAc
Method in brief: as §1

[13] = target: GlcNAc(b1-2)Man(a1-3)[GlcNAc(b1-2)Man(a1-6)]Man(b1-4)GlcNAc(b1-4)GlcNAc
Method in brief: as §1

[14] = target: GlcNAc(b1-2)Man(a1-3)[GlcNAc(b1-2)Man(a1-6)]Man(b1-4)GlcNAc(b1-4)[Fuc(a1-6)]GlcNAc
Method in brief: as §1

[15] = target: GlcNAc(b1-2)Man(a1-3)[GlcNAc(b1-4)][GlcNAc(b1-2)Man(a1-6)]Man(b1-4)GlcNAc(b1-4)GlcNAc
Method in brief: as §1

[16] = target: GlcNAc(b1-2)Man(a1-3)[GlcNAc(b1-4)][GlcNAc(b1-2)Man(a1-6)]Man(b1-4)GlcNAc(b1-4)[Fuc(a1-6)]GlcNAc
Method in brief: as §1

[17] = target: GlcNAc(b1-2)[GlcNAc(b1-4)]Man(a1-3)[GlcNAc(b1-2)Man(a1-6)]Man(b1-4)GlcNAc(b1-4)GlcNAc
Method in brief: as §1

[18] = target: GlcNAc(b1-2)[GlcNAc(b1-4)]Man(a1-3)[GlcNAc(b1-4)][GlcNAc(b1-2)Man(a1-6)]Man(b1-4)GlcNAc(b1-4)GlcNAc
Method in brief: as §1

[19] = target: GlcNAc(b1-2)[GlcNAc(b1-4)]Man(a1-3)[GlcNAc(b1-4)][GlcNAc(b1-2)[GlcNAc(b1-6)]Man(a1-6)]Man(b1-4)GlcNAc(b1-4)GlcNAc
Method in brief: as §1

[20] = target: GlcNAc(b1-2)[GlcNAc(b1-4)]Man(a1-3)[GlcNAc(b1-4)][GlcNAc(b1-2)[GlcNAc(b1-6)]Man(a1-6)]Man(b1-4)GlcNAc(b1-4)[Fuc(a1-6)]GlcNAc
Method in brief: as §1

[21] = target: GlcNAc(b1-2)[GlcNAc(b1-6)]Man(a1-6)[GlcNAc(b1-2)Man(a1-3)]Man(b1-4)GlcNAc(b1-4)GlcNAc
Method in brief: as §1

[22] = target: GlcNAc(b1-2)[GlcNAc(b1-6)]Man(a1-6)[GlcNAc(b1-2)Man(a1-3)]Man(b1-4)GlcNAc(b1-4)[Fuc(a1-6)]GlcNAc
Method in brief: as §1

[23] = target: GlcNAc(b1-2)[GlcNAc(b1-6)]Man(a1-6)[GlcNAc(b1-4)][GlcNAc(b1-2)Man(a1-3)]Man(b1-4)GlcNAc(b1-4)GlcNAc
Method in brief: as §1

GlcNAc(b1-3)Fuc = target: GlcNAc(b1-3)Fuc
Method in brief: as §1

GlcNAc(b1-3)Gal = target: GlcNAc(b1-3)Gal
Method in brief: as §1

[24] = target: GlcNAc(b1-3)Gal(b1-3)GalNAc
Method in brief: as §1

GlcNAc(b1-3)Gal(b1-4)Glc = target: GlcNAc(b1-3)Gal(b1-4)Glc
Method in brief: as §1

[25] = target: GlcNAc(b1-3)Gal(b1-4)GlcNAc
Method in brief: as §1

[26] = target: GlcNAc(b1-3)Gal(b1-4)GlcNAc(b1-2)Man(a1-3)[GlcNAc(b1-3)Gal(b1-4)GlcNAc(b1-2)Man(a1-6)]Man(b1-4)GlcNAc(b1-4)GlcNAc
Method in brief: as §1

[27] = target: GlcNAc(b1-3)Gal(b1-4)GlcNAc(b1-2)Man(a1-3)[GlcNAc(b1-3)Gal(b1-4)GlcNAc(b1-2)Man(a1-6)]Man(b1-4)GlcNAc(b1-4)[Fuc(a1-6)]GlcNAc
Method in brief: as §1

[28] = target: GlcNAc(b1-3)Gal(b1-4)GlcNAc(b1-2)[GlcNAc(b1-3)Gal(b1-4)GlcNAc(b1-6)]Man(a1-6)[GlcNAc(b1-3)Gal(b1-4)GlcNAc(b1-2)Man(a1-3)]Man(b1-4)GlcNAc(b1-4)GlcNAc
Method in brief: as §1

[29] = target: GlcNAc(b1-3)Gal(b1-4)GlcNAc(b1-3)Gal(b1-4)GlcNAc
Method in brief: as §1

[30] = target: GlcNAc(b1-3)Gal(b1-4)GlcNAc(b1-3)Gal(b1-4)GlcNAc(b1-2)Man(a1-3)[GlcNAc(b1-3)Gal(b1-4)GlcNAc(b1-3)Gal(b1-4)GlcNAc(b1-2)Man(a1-6)]Man(b1-4)GlcNAc(b1-4)GlcNAc
Method in brief: as §1

[31] = target: GlcNAc(b1-3)Gal(b1-4)GlcNAc(b1-3)Gal(b1-4)GlcNAc(b1-2)Man(a1-3)[GlcNAc(b1-3)Gal(b1-4)GlcNAc(b1-3)Gal(b1-4)GlcNAc(b1-2)Man(a1-6)]Man(b1-4)GlcNAc(b1-4)[Fuc(a1-6)]GlcNAc
Method in brief: as §1

[32] = target: GlcNAc(b1-3)Gal(b1-4)GlcNAc(b1-3)Gal(b1-4)GlcNAc(b1-2)[GlcNAc(b1-3)Gal(b1-4)GlcNAc(b1-3)Gal(b1-4)GlcNAc(b1-6)]Man(a1-6)[GlcNAc(b1-3)Gal(b1-4)GlcNAc(b1-3)Gal(b1-4)GlcNAc(b1-2)Man(a1-3)]Man(b1-4)GlcNAc(b1-4)[Fuc(a1-6)]GlcNAc
Method in brief: as §1

[33] = target: GlcNAc(b1-3)Gal(b1-4)GlcNAc(b1-3)Gal(b1-4)GlcNAc(b1-3)Gal(b1-4)GlcNAc(b1-2)Man(a1-3)[GlcNAc(b1-3)Gal(b1-4)GlcNAc(b1-3)Gal(b1-4)GlcNAc(b1-3)Gal(b1-4)GlcNAc(b1-2)Man(a1-6)]Man(b1-4)GlcNAc(b1-4)GlcNAc
Method in brief: as §1

[34] = target: GlcNAc(b1-3)Gal(b1-4)GlcNAc(b1-3)Gal(b1-4)GlcNAc(b1-3)Gal(b1-4)GlcNAc(b1-2)Man(a1-3)[GlcNAc(b1-3)Gal(b1-4)GlcNAc(b1-3)Gal(b1-4)GlcNAc(b1-3)Gal(b1-4)GlcNAc(b1-2)Man(a1-6)]Man(b1-4)GlcNAc(b1-4)[Fuc(a1-6)]GlcNAc
Method in brief: as §1

[35] = target: GlcNAc(b1-3)Gal(b1-4)GlcNAc(b1-3)Gal(b1-4)GlcNAc(b1-3)Gal(b1-4)GlcNAc(b1-2)[GlcNAc(b1-3)Gal(b1-4)GlcNAc(b1-3)Gal(b1-4)GlcNAc(b1-3)Gal(b1-4)GlcNAc(b1-6)]Man(a1-6)[GlcNAc(b1-3)Gal(b1-4)GlcNAc(b1-3)Gal(b1-4)GlcNAc(b1-3)Gal(b1-4)GlcNAc(b1-2)Man(a1-3)]Man(b1-4)GlcNAc(b1-4)[Fuc(a1-6)]GlcNAc
Method in brief: as §1

[36] = target: GlcNAc(b1-3)Gal(b1-4)GlcNAc(b1-3)Gal(b1-4)GlcNAc(b1-3)Gal(b1-4)GlcNAc(b1-3)Gal(b1-4)GlcNAc(b1-2)Man(a1-3)[GlcNAc(b1-3)Gal(b1-4)GlcNAc(b1-3)Gal(b1-4)GlcNAc(b1-3)Gal(b1-4)GlcNAc(b1-3)Gal(b1-4)GlcNAc(b1-2)Man(a1-6)]Man(b1-4)GlcNAc(b1-4)GlcNAc
Method in brief: as §1

[37] = target: GlcNAc(b1-3)Gal(b1-4)GlcNAc(b1-3)Gal(b1-4)GlcNAc(b1-3)Gal(b1-4)GlcNAc(b1-3)Gal(b1-4)GlcNAc(b1-2)Man(a1-3)[GlcNAc(b1-3)Gal(b1-4)GlcNAc(b1-3)Gal(b1-4)GlcNAc(b1-3)Gal(b1-4)GlcNAc(b1-3)Gal(b1-4)GlcNAc(b1-2)Man(a1-6)]Man(b1-4)GlcNAc(b1-4)[Fuc(a1-6)]GlcNAc
Method in brief: as §1

B1: AAL (Agrocybe aegerita), Q6WY08 (protein)
chain: MQGVNIYNISAGTSVDLAAPVTTGDIVTFFSSALNLNAGAGNPNNTTLNLFAENGAYLLHIAHRLQENVIIFNSRQPDGPWLVEQRVSDVANQFAGIDGKAMVTVFDHGDKYQVVINEKTVIQYTKQISGLTLSLSYNATEETSIFSTVVEAVTYTGLALEHHHHHH
glycan array binding signal (z-score) (Glc(b1-4)Glc): -0.554
glycan array binding signal (z-score) (Glc(b1-6)Glc): -0.408
glycan array binding signal (z-score) (GlcA(b1-3)Gal): -0.33
glycan array binding signal (z-score) (GlcA(b1-3)GlcNAc): -0.101
glycan array binding signal (z-score) (GlcA(b1-6)Gal): 0.43
glycan array binding signal (z-score) [1]: 14.9
glycan array binding signal (z-score) [2]: 12.7
glycan array binding signal (z-score) [3]: -0.255
glycan array binding signal (z-score) [4]: -0.008
glycan array binding signal (z-score) [5]: -0.141
glycan array binding signal (z-score) [6]: -0.262
glycan array binding signal (z-score) [7]: -0.403
glycan array binding signal (z-score) [8]: -0.067
glycan array binding signal (z-score) [9]: -0.106
glycan array binding signal (z-score) [10]: 0.227
glycan array binding signal (z-score) [11]: -0.099
glycan array binding signal (z-score) [12]: -0.256
glycan array binding signal (z-score) [13]: 0.012
glycan array binding signal (z-score) [14]: -0.272
glycan array binding signal (z-score) [15]: -0.176
glycan array binding signal (z-score) [16]: -0.109
glycan array binding signal (z-score) [17]: 0.192
glycan array binding signal (z-score) [18]: 0.362
glycan array binding signal (z-score) [19]: -0.091
glycan array binding signal (z-score) [20]: 0.194
glycan array binding signal (z-score) [21]: 0.144
glycan array binding signal (z-score) [22]: 0.15
glycan array binding signal (z-score) [23]: -0.394
glycan array binding signal (z-score) (GlcNAc(b1-3)Fuc): 0.225
glycan array binding signal (z-score) (GlcNAc(b1-3)Gal): 0.181
glycan array binding signal (z-score) [24]: 0.116
glycan array binding signal (z-score) (GlcNAc(b1-3)Gal(b1-4)Glc): 1.42
glycan array binding signal (z-score) [25]: 0.152
glycan array binding signal (z-score) [26]: -0.1
glycan array binding signal (z-score) [27]: -0.15
glycan array binding signal (z-score) [28]: -0.481
glycan array binding signal (z-score) [29]: -0.158
glycan array binding signal (z-score) [30]: 0.222
glycan array binding signal (z-score) [31]: 0.391
glycan array binding signal (z-score) [32]: 0.909
glycan array binding signal (z-score) [33]: 0.262
glycan array binding signal (z-score) [34]: 0.906
glycan array binding signal (z-score) [35]: 0.893
glycan array binding signal (z-score) [36]: 0.027
glycan array binding signal (z-score) [37]: 0.444

— the supplement of paper PMC8728848
